According to ChEMBL document CHEMBL4888484, “Replenishing the malaria drug discovery pipeline: Screening and hit evaluation of the MMV Hit Generation Library 1 (HGL1) against asexual blood stage Plasmodium falciparum ,using a nano luciferase reporter read-out” (2022):
Out of some 150,000 compounds screened, about 540 (0.36%) showed an effect of 50% or more. This is one part of the list.

test system: Plasmodium falciparum; assay: Primary screen in NF54 nanoGlo assay, in single point, at 2uM, 72h; a lower Z score goes with more inhibition; type: functional, Erythrocyte; details: timepoint 72 hour

SMILES	% Inhibition	Z score
Cc1nc2ccccn2c1CNC(=O)[C@H]1CCO[C@@H]1c1cccnc1	-16%	1.81
COc1ccc(C(C)CC(=O)N2CCCC(c3nnn[nH]3)C2)cc1 (stereo not given)	4%	-0.64
CCCNC(=O)CN1C(=O)[C@H]2CCCC2=Nc2cc(C)c(C)cc21	19%	-2.11
O=C(NCC1(c2cccs2)CC1)c1ccc(S(=O)(=O)N2CCOCC2)cc1	-7%	1.31
Cc1nn(-c2nc3ccccc3[nH]2)c2c1[C@H](c1ccc(C(C)(C)C)s1)CC(=O)N2	0%	0.03
CON(Cc1c(Cl)cncc1Cl)CC1CCOCC1	-8%	1.14
O=C(N[C@@H](N1CCCC1)C(Cl)(Cl)Cl)c1ccccc1Cl	-7%	0.85
O=C(Nc1nnc(C(F)F)s1)c1n[nH]c2ccccc12	-11%	1.93
O=C(CN1C(=O)COc2ccc(Cl)cc21)NCCCN1CCOCC1	-6%	0.76
CC(CNC(=O)C(C)NC(=O)C1CCC1)Oc1ccc(Cl)cc1 (stereo not given)	5%	-0.87
CCN(CC)C(=O)N1CCC(C(=O)Nc2c(C)n(C)n(-c3ccccc3)c2=O)CC1	-6%	0.52
CCC[C@]1(CO)CCCN(Cc2cncn2C)C1	2%	-0.21
CCCCN1CCN(S(=O)(=O)c2cc(-c3nnc(C4CCCC4)o3)co2)CC1	7%	-0.87
N#Cc1cnc2ccc(Cl)cc2c1N1CCC(Cc2ccccc2)CC1	4%	-0.52
O=C(NCc1ccccc1)c1nn(-c2ccc(Cl)cc2)c(=O)n(Cc2ccccc2F)c1=O	5%	-0.62
O=C1N(CC2CCC2)CCC[C@@]12CCN(Cc1noc(C3CCCC3)n1)C2	-15%	2.33
CCc1c(N[C@@H](C)c2cnn(C)c2)cnn1CC(C)C	-6%	0.65
COc1ccc(OC)c(CNc2nncn2C2CC2)c1	-14%	2.03
N#CCC1(CNC(=O)N2CCCC2C2CCCO2)CC1 (stereo not given)	-9%	1.26
O=C(Oc1ccc(OCC2CC2)cc1)c1cnccn1	-3%	0.26
O=C(CNC(=O)C1CCCCC1)NCCCN1CCOCC1	-4%	0.56
C=CCNC(=S)NS(=O)(=O)c1ccc(Cl)cc1	33%	-4.42

SMILES	% Inhibition	Z score
FC(F)(F)c1cccc(-c2nc([C@@H]3CN(Cc4ccccc4)CCO3)no2)n1	-10%	1.24
CN(CCc1ccccc1)C[C@@H]1OC[C@H](NC(=O)c2cccc(F)c2)[C@H]1O	34%	-3.86
Cc1ccnc(N(C)C[C@H](C)C(=O)O)c1Cl	0%	-0.03
Cc1ccc(Br)cc1NC(=O)N(C)CCc1cnccn1	-16%	1.41
CC(C)[C@@H]1CN(C)CCN1Cc1cnc2ncccn12	-8%	0.84
Cc1nc(C)c(C)c(N2CCC3(CC2)C[C@@H]3C(=O)N2CCCC2)n1	-10%	1.33
Cc1nc[nH]c1CN1CCN(C(=O)c2ccccc2O)[C@H]2CS(=O)(=O)C[C@H]21	-8%	1.51
COCC(=O)NC[C@H]1CCN(Cc2ccc(Cl)cc2)C[C@H]1N(C)C	4%	-0.81
O=C(Cn1cnnn1)N1CCC[C@H](c2[nH]ncc2-c2ccccc2)C1	-12%	1.57
CCn1c(-c2cc(NC(=O)[C@H](C)Oc3ccccc3)[nH]n2)cc2cc(OC)ccc21	26%	-3.58
CS(=O)(=O)c1ccc(NC(=O)N2C[C@H]3CC=CC[C@H]3C2)cc1	-15%	2.1
N#CC1(N2CCCC2)CCN(CC2CC2)CC1	9%	-1.32
Cc1ccc(C(C)(C)CNC(=O)C2C[C@H]3C[C@@H](N)[C@H]3C2)nc1 (stereo not given in full)	2%	-0.25
Cc1n[nH]c(C)c1CNC(=O)C[C@@H](c1cccc(O)c1)c1cccc(Cl)c1	-6%	0.73
O=S(=O)(C1C[C@@H]2CC[C@H]1C2)N1CC2CCC(O)C2C1 (stereo not given in full)	-17%	2.79
CC(C)NC(=O)C(C#N)C(=O)C1CC1c1ccc(F)cc1F (stereo not given)	-2%	0.34
Cc1ccc(-n2cc(S(=O)(=O)NCC3CC3)cn2)cc1S(=O)(=O)NCC1CC1	-5%	0.61
O=C(CCCc1nnc2ccccn12)Nc1ccncc1	-14%	1.8
Cc1ccc([C@@H](O)CNC(=O)c2cccn(C)c2=O)o1	-9%	1
C[C@H]1CN(c2ncnc3c2cnn3C)c2ccccc21	-12%	1.54
C[C@@H](CCNC(=O)c1cccc(-c2cc(C#N)ccc2O)c1)N1CCOCC1	-14%	1.82
CCCNC(=O)c1nc(N2CCCC2)c2c(C)cc(C)nc2n1	-6%	0.92

SMILES	% Inhibition	Z score
Cc1cncc(C(=O)Nc2cc(Br)c(=O)n(C)c2)c1	-15%	1.77
O=C(NC(=O)C(F)(F)F)Nc1cc(C(F)(F)F)ccc1Cl	-14%	1.61
COc1ccc(-c2c(C(=O)Nc3ccc(C)cc3Cl)nn3c(C)cc(=O)[nH]c23)cc1	-15%	1.78
Cn1cc(CCC(=O)NCc2ccc3c(c2)nc(C2CC2)n3C)cn1	-4%	0.76
CCOC(=O)C1(Cc2ccc(Cl)cc2)CCN([C@@H](C)Cc2cc(C)ccn2)CC1	-8%	1.05
CCOc1cccc(Cc2noc([C@H]3CCCc4[nH]nnc43)n2)n1	2%	-0.4
C#CCCN1CCN(C(=O)C2CC(=O)N(C)C2c2cccnc2)CC1 (stereo not given)	8%	-0.87
Cc1cnc(C)c(-c2cc(O)c3c(c2)CN(C2CCOCC2)CCO3)n1	-5%	0.68
CCCN(CC(F)F)S(=O)(=O)N1CC(C)OCC1C (stereo not given)	-6%	0.75
CCOCC(=O)Nc1cc(-c2cc3cc(OC)ccc3n2CC)n[nH]1	-17%	2.05
COCCN1C(=O)CC[C@]2(C(=O)N(C)C)CCCC[C@@H]12	-15%	1.5
CC1CN(Cc2ccccn2)CCC1Nc1cccc(F)c1C#N (stereo not given)	2%	-0.24
CCc1nn(C)c(NC(=O)[C@H](OC)c2ccccc2)c1C	-6%	1.04
Cc1oc(C2CC2)nc1C(=O)NC[C@@H]1CC(=O)N(C(C)(C)C)[C@H]1c1cnn(C)c1	-10%	1.12
O=S(=O)(C1COC1)N1CC2(CCCOC2)C1	31%	-3.47
COC(=O)N[C@@H](CC(C)C)C(=O)Nc1ccc(CO)c(CO)c1	-3%	0.4
Cc1ccc(CN2CCC(N3C(=O)N4CCCC4(C)C3=O)C2=O)cc1 (stereo not given)	-14%	2.03
CC(C)(C)n1ncnc1-c1ccc(-n2cnnc2)nc1	-12%	1.88
Clc1cccc2ccc(CN3CCO[C@H](c4cccnc4)C3)nc12	-24%	2.58
CCN1CCCN(C(=O)CCCc2c[nH]c3ccccc23)CC1=O	-6%	0.83
COCCN(CCN(C)C)C(=O)c1[nH]ncc1Br	-4%	0.46
c1ccc(-n2cnnc2NCc2cnc(C3CC3)s2)cc1	-6%	0.89

SMILES	% Inhibition	Z score
C[C@@H]1[C@@H](c2ccc(Br)cc2)OCCN1C(=O)NCc1ccn(C)n1	7%	-1.34
CC(=O)CCC(=O)Nc1ccc(C)nc1C	-7%	1.08
NC(=O)c1cc2c(nc1N1C[C@H]3CC[C@@H](C1)N(CC1CC1)C3)CCC2	10%	-1.42
Cc1ccc(O)c(C(=O)N2CC[C@H](O)[C@@H](O)C2)c1	-3%	0.32
CNc1cc(-c2ccc(C(=O)N3CCC[C@H](C(N)=O)C3)cc2)nc(N)n1	4%	-0.73
O=C(NCc1ccc(F)cc1)Nc1ccc2c(c1)N(C(=O)c1ccccc1)CCC2	1%	-0.08
COc1ccc(CCCN2CCC(n3cncn3)CC2)cc1F	-12%	1.93
Cc1ccc(C[C@H](C)NC(=O)CNC(=O)CCC(C)C)s1	-17%	1.58
O=C(NC1CCCC1)c1cncn1-c1ccc(-c2cc(C(F)(F)F)cc(C(F)(F)F)c2)cc1	-17%	1.71
Cc1cc(NC(=O)c2ccccc2)nc(-c2ccccc2)n1	-10%	1.35
CCC(=O)N[C@H]1CCN(c2ncc(Cl)cn2)C12CCCC2	-9%	0.9
O=C(NC[C@H]1CCCO1)Nc1cccc(-c2cnc[nH]2)c1	-7%	1.39
O=C(CN1CCN(S(=O)(=O)c2cccc(F)c2)CC1)NCC1(N2CCOCC2)CCCCC1	-32%	3.79
Cc1ccnc(C(=O)N[C@@H]2CNC(=O)C2)n1	0%	-0.08
CCNc1ncc(CN(Cc2cccnc2)C2CCCCC2)cn1	-2%	0.37
CCc1nnc(CN(C)Cc2nnc(-c3cccnc3)o2)o1	2%	-0.27
CCC(=O)N1C[C@@H](COc2ccccc2)[C@H](C2CCN(C(=O)C(C)C)CC2)C1	-1%	0.16
O=C(c1cccc2ccccc12)n1nnc2ccccc21	2%	-0.4
CCCN1CCC[C@H](NCc2ccc(CC)cn2)C1	-11%	1.74
